No constants are given. Whether binding was seen depends on the method and setting. In cells and extracts the contact can be indirect. Some results given as binding are weak or reduced against the parent protein; the word gives no strength. For some of these results: Sequences can lack the tags named with a protein. One block for each molecule: values may come before it.
How the values were obtained:
Flag-Kindlin-1 = molecular target: T1, Flag-Kindlin-1 (UniProt Q9BQL6); test: co-IP; anti-Flag antibody on NP40 lysates of HCT116 cells transfected with Flag-Kindlin-1 or its truncations; endogenous partners detected by immunoblot; overnight at 4°C
T1 sequence: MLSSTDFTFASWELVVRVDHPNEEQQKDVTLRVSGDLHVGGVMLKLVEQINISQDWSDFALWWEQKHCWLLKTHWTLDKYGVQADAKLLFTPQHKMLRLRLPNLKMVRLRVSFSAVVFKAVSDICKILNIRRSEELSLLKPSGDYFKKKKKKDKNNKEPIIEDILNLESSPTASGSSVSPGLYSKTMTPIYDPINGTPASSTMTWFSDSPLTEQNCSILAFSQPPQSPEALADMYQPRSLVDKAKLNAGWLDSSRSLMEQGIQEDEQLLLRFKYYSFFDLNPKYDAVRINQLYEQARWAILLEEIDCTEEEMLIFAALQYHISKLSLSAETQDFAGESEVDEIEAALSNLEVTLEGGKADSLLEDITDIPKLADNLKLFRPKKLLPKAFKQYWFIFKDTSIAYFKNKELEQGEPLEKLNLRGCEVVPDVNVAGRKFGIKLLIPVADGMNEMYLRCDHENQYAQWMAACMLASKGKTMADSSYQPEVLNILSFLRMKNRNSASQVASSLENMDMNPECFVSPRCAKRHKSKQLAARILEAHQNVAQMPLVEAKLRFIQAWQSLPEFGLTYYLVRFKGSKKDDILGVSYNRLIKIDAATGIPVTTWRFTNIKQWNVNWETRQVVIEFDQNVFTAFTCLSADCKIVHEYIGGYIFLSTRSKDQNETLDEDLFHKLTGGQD

Sequences of proteins named here, by UniProt entry; tags and fusion partners are left off. A change or cut given only in a name is not applied to a line headed by its entry. Residues count along the entry.
UniProt P84022: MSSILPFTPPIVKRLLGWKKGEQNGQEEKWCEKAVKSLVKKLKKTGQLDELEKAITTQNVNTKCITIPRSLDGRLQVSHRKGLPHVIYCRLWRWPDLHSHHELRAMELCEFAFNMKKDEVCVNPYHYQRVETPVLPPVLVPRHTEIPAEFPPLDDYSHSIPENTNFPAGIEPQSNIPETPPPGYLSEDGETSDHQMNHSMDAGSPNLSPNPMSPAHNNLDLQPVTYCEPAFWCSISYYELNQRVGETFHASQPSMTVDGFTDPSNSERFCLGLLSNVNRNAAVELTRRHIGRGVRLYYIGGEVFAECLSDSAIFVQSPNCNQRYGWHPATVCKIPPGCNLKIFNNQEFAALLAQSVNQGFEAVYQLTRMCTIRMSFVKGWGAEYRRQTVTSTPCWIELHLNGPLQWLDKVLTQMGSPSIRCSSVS
GST-Smad3-MH1: residues 1-200 of P84022
UniProt Q15796: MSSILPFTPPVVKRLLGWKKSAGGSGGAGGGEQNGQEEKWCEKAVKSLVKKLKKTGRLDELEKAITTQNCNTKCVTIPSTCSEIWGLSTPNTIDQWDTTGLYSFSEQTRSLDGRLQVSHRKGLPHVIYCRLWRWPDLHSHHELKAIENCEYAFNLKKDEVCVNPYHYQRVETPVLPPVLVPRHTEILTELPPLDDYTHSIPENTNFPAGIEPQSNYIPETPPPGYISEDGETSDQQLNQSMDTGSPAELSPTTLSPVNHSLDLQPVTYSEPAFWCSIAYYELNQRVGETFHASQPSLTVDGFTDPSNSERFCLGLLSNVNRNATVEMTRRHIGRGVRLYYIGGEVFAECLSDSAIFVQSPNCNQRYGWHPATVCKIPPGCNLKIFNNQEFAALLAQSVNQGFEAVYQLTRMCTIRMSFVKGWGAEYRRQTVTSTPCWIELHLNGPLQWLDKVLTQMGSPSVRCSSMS

GST-Smad3-MH1 = GST-Smad3-MH1 (UniProt P84022); test: pull-down; lysates of SW1116 cells transiently transfected with Flag-Kindlin-1 truncations pulled down with GST-fused Smad3 fragments; only the target purified
[1] = molecular target: T2, Smad anchor for receptor activation (SARA) (endogenous) (human (endogenous in HCT116)) (UniProt O95405); test: co-IP; endogenous proteins from NP40 lysates of HCT116 cells precipitated with anti-Smad3, anti-TβRI or anti-SARA antibody, normal IgG as control, overnight at 4°C; also with Kindlin-1 siRNA, Kindlin-1 overexpression or re-expression, and TGF-β1 stimulation
T2 sequence: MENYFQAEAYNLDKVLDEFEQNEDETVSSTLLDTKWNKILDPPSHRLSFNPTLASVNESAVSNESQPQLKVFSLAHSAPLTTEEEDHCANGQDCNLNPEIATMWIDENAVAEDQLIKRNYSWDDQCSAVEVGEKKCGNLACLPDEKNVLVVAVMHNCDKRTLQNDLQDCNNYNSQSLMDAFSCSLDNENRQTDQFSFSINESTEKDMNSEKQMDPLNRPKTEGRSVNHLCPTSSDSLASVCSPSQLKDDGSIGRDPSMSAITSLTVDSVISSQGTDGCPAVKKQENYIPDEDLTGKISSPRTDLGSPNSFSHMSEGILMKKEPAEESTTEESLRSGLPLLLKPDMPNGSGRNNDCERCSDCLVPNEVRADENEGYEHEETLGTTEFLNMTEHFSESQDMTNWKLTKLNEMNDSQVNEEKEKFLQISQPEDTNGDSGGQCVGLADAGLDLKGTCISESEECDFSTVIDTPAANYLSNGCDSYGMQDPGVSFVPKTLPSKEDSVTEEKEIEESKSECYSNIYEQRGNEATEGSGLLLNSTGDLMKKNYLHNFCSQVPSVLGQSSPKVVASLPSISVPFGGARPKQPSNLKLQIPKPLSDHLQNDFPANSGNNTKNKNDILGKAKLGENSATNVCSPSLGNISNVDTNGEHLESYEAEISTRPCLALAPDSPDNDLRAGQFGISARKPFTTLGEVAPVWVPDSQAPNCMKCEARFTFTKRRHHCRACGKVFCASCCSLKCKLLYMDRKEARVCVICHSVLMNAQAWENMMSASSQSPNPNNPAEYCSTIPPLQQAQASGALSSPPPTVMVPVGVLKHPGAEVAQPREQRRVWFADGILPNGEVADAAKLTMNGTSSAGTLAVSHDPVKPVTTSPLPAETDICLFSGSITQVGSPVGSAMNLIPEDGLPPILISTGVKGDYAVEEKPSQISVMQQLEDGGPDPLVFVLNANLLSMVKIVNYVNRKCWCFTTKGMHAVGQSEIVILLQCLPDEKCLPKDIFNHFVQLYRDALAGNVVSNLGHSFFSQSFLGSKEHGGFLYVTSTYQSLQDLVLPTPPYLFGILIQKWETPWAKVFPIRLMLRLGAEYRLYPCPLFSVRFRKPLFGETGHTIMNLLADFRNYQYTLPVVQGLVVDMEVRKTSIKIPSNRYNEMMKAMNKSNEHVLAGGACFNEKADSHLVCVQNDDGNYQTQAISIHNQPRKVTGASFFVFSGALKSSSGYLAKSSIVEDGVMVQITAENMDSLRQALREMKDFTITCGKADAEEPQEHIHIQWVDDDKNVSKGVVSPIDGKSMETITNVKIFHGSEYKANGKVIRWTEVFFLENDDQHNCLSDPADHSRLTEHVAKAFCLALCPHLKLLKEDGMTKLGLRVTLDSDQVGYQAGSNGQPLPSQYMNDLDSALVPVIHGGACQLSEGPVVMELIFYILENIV

[2] = molecular target: Smad3 (endogenous) (human (endogenous in HCT116)) (UniProt P84022); test: as above
[3] = molecular target: T3, TGF-β receptor I (endogenous) (human (endogenous in HCT116)) (UniProt P36897); test: as above
T3 sequence: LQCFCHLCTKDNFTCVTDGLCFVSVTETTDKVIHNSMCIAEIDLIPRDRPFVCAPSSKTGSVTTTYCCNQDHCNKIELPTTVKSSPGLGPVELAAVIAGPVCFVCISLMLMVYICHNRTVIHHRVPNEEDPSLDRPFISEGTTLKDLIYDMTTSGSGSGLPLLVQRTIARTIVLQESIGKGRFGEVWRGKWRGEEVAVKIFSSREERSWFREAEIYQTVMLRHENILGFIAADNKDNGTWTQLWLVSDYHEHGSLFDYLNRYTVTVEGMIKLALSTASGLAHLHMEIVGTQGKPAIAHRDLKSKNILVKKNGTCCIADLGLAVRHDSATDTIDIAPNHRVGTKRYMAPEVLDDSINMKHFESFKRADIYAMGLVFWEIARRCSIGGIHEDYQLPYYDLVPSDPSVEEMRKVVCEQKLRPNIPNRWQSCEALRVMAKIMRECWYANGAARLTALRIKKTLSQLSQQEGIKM

Molecule: Smad2 (endogenous) (from UniProt Q15796 1-467)
binding (Flag-Kindlin-1): no binding

B1: Flag-Kindlin-1-N (domain or fragment, UniProt Q9BQL6 1-350)
chain: MLSSTDFTFASWELVVRVDHPNEEQQKDVTLRVSGDLHVGGVMLKLVEQINISQDWSDFALWWEQKHCWLLKTHWTLDKYGVQADAKLLFTPQHKMLRLRLPNLKMVRLRVSFSAVVFKAVSDICKILNIRRSEELSLLKPSGDYFKKKKKKDKNNKEPIIEDILNLESSPTASGSSVSPGLYSKTMTPIYDPINGTPASSTMTWFSDSPLTEQNCSILAFSQPPQSPEALADMYQPRSLVDKAKLNAGWLDSSRSLMEQGIQEDEQLLLRFKYYSFFDLNPKYDAVRINQLYEQARWAILLEEIDCTEEEMLIFAALQYHISKLSLSAETQDFAGESEVDEIEAALSNL
binding (GST-Smad3-MH1): binds

B2: Kindlin-1 (endogenous) (protein, UniProt Q9BQL6 1-677)
chain: T1 sequence
binding [1]: binds | binding [2]: binds | binding [3]: binds

Further lines, results first:

binding (Flag-Kindlin-1): binds
Molecule: Smad3 (endogenous) (from UniProt P84022 1-425)

binding (Flag-Kindlin-1): binds
B3: Smad anchor for receptor activation (SARA) (endogenous) (protein, UniProt O95405 1-1425)
chain: T2 sequence

— paper PMC5342809
